One molecule from patent US20240376194A1 (WUXI BIOLOGICS IRELAND, published 2024) can be followed below.

The term Kd denotes the concentration at which binding is half-saturated. Low readings indicate a tighter complex, high ones a looser complex. The koff is the first-order rate constant of dissociation. A low value points to a long-lived complex. Broadly, the kon is a measure of how fast the partners come together. A word on the EC50: it is the concentration that produces a half-maximal response. Low readings indicate higher potency in that assay, high ones lower potency in that assay.

Test [1] concerns the target T1, WT115-hPro1.ECD.His (human, UniProt Q9NYJ7 27-492).
T1 construct: extracellular domain; Bought protein; also called human D3 ECD protein; human D3-ECD protein; not shown: His tag
T1 sequence (looked up): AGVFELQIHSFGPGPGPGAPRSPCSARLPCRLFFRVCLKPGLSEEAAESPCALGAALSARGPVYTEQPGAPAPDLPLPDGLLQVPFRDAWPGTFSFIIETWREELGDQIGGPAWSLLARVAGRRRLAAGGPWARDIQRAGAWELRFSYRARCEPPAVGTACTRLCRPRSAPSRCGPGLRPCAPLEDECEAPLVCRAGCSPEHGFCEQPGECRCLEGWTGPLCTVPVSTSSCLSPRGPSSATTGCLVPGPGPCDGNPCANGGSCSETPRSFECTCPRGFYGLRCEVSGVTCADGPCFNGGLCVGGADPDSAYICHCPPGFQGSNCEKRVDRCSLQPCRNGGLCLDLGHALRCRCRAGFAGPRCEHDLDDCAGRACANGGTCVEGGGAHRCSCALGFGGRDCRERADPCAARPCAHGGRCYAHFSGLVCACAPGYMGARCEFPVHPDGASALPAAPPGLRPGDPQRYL
As to the kind of experiment: SPR Biacore T200, antibody captured on anti-human IgG Fc chip, WT115-hPro1.ECD.His as analyte. Here is the method: The binding affinity of anti-D3 antibodies to human D3 ECD protein was detected by SPR assay using Biacore T200. Each antibody tested was captured on an anti-human IgG Fc antibody immobilized CM5 sensor chip (GE). WT115-hPro1.ECD.His at different concentrations were injected over the sensor chip at a flow rate of 30 μl/min for an association phase of 180 s, followed by 3600 s dissociation. The chip was regenerated by 10 mM glycine (pH 1.5) after each binding cycle.
The other experimental data was fitted by 1:1 model using Langmiur analysis. The sensorgrams of blank surface and buffer channel were subtracted from the test sensorgrams. Molecular weight of 34 KDa was used to calculate the molar concentration of analyte.

Test [2] has as its target T1, WT115-hPro1.ECD.His. As to the kind of experiment: ELISA on immobilized WT115-hPro1.ECD.His. The protocol:
Plates were pre-coated with 1 μg/mL, 100 μL per well of WT115-hPro1.ECD.His at 4° C. overnight. The antigen was diluted in coating buffer (0.02 M Na₂CO₃ and 0.18 M NaHCO₃, pH9.2) from stock solution. Next day, the plates were washed using 1×PBST (PBS containing 0.05% tween-20) for one time, and blocking was done by adding 200 μL of 1×PBS/2% BSA. […] After 1-hour blocking, the plates were washed using 1×PBST for 3 times, and then the antibodies were added to the plates and incubated at ambient temperature for 1 hour. Binding of antibodies to the immobilized human D3 was detected by HRP-labeled secondary antibody (Bethyl, A80-304P), which was diluted in 1×PBS/2% BSA at a concentration of 1:10000. After incubation, the plates were washed using 1×PBST for 6 times. The color was developed by dispensing 100 μL of TMB substrate, and then reaction was stopped by adding 100 μL of 2M HCl. Absorbance was read at 450 nm and 540 nm using a microplate spectrophotometer. Anti-human D3 antibodies WT115-BMK1 and WT115-BMK2 were used as positive controls. Human IgG1 isotype antibody was used as a negative control. All samples were tested in duplicate.

Test [3] addresses T2, full length human D3 on WT115-293F.hPro1.2E5 cells (human, UniProt Q9NYJ7 27-618).
T2 construct: whole, on cells; Isoform printed as Q9NYJ7-1; also called human D3 expressing cell
T2 sequence (looked up): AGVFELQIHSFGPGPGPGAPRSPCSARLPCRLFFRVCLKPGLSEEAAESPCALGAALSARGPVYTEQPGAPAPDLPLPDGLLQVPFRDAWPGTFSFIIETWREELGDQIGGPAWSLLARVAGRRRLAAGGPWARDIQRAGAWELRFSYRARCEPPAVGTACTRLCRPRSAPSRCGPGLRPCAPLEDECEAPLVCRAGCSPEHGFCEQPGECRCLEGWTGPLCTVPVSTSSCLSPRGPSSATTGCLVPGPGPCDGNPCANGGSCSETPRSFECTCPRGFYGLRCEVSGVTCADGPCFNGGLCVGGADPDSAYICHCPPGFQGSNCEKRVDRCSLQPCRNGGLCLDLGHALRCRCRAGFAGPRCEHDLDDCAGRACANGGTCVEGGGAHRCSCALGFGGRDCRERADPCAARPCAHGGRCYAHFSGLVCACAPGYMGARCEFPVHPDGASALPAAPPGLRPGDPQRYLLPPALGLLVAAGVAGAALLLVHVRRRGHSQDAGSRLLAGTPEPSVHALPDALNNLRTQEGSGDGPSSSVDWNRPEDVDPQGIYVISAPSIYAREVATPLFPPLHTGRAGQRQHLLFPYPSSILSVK
As to the kind of experiment: FACS on WT115-293F.hPro1.2E5 cells. The protocol: Anti-human D3 antibodies WT115-BMK1 and WT115-BMK2 were used as positive controls. Human IgG1 isotype antibody was used as a negative control. The cells were washed and resuspended in 4% paraformaldehyde. MFI of the cells was measured by a flow cytometer and analyzed by FlowJo.

B1: WT1156-P3R2-1C2-uIgG1 (Fc fusion)
chain: EVQLVESGGGLVQTGDSLRLSCAASGLTFSTATVGWFRQAPGKERDLIAAIPAYYSTYYASSVKGRFTISRDNAKNTVYLQMNSLKPEDTGVYYCAADDTPSPSRSPFYKHRGQGTQVTVSS[gap - human IgG1 Fc]
notes: It speaks of a dimer only in embodiments; Biotinylated in the mouse D3 ELISA
In the test with WT115-hPro1.ECD.His [1], B1 returned a Kd of 66.8 pM, a koff of 1.28e-05 s⁻¹ and a kon of 192000 M⁻¹ s⁻¹. This molecule gave a 50% effective concentration (EC50) with WT115-hPro1.ECD.His [2] of 13 pM. The molecule further yielded a concentration for a half-maximal effect (EC50) in test [3] of 150 pM.
